Some of the results follow. At the low end of the ranking, values are background and their order means little. The protein was read in a cell extract, so binding may be indirect.
target: T1, HNF4alpha8 (COS-7 nuclear extract) (UniProt P41235-5); experiment: protein-binding microarray; conditions: COS-7 nuclear extract on double-stranded Agilent 4x180k PBM; binding buffer, salt, pH and temperature not given; high values mean tight binding; double strand, one strand shown; sequences stand for … in …GCCTAGGGAGATTAGAGTATCGGTCGA
T1 sequence: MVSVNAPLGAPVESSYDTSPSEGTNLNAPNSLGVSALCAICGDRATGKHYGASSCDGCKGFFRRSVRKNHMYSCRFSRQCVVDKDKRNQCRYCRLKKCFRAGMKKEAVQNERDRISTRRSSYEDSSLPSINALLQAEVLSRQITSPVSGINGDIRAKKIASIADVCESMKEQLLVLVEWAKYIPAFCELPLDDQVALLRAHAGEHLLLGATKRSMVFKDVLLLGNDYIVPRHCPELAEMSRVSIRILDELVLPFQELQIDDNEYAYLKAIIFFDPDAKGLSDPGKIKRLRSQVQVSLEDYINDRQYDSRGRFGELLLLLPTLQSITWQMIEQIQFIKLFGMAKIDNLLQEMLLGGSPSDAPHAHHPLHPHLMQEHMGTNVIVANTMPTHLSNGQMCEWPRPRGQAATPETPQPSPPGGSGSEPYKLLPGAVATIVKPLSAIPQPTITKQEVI

Sequence	binding signal (log2 normalized intensity)
CTCCAAGATAAAGGGTCAGATTGTAGCCTC	1.37
AGTATCCCATCCATTTCCCATCCCCAGAGC	3.72
CTGCCAAAGCTCACAGATGTGGAATGAAAC	-0.00598
GGCAGCCAGTGAGTGCAGCAGTGTACTTGA	0.556
ACCATCCACGGATGCATGATTGCTCTCTAC	-1.24
CAGCAGACAATGGGAGACATTCCTTCAGCG	-1.15
CCTTTTCTATCCAGATGATCTTTACCCTGG	4.59
GAACTGCAAGGCTAGAGATTCTCCCTGGGG	-1.34
AGGAATCTGTTGAGAACTGGAGCAAAGGTC	5.76
TGTCCCACATTAACTGTGCTTCTGGGGTAT	0.886
AATAACAAAGGGCACCCTTGATGTGTATTT	1.75
ATCAGGAAGGTCAGAAAGCAGAAGTTCTAG	-1.3
GTACCCCACAGGTATTCTTTCATCCCTCTC	1.54
AACCCTTGAGCTCTGCACAGCACAAGATAA	0.249
CCCATCCCAGAGGTCAAACTATCTGAGGTG	1.93
AAGCCGAAAGAGGGTGAAAGTACAGTGATG	1.11
GGGCTGAGGATGAGGACTTTGGTCTTATTA	4.45
ACCCCAAAACCCCCAAAGGTGAGTAGGGCC	3.21
ATGGAGATGGAGATGGCCTGGAGGTACCTA	-1.41
TGATCACAAAGCCTGGGGTTTGGCTCCAAG	-1.25
TAGTACGCTCCCTGTGCCCACTTTCCTGGG	-0.99
ACCTGCAAACCTTTGACCTTTCCATAGTTC	5.75
CTTCGCTGGAATGTCACAGGGATTACGATC	0.569
ACCTGACAGGCTGAGGATCTAATGCACCCA	-0.914
TTCTCTGAGGTAGTTGAGTGCCTCCATTTC	0.109

Sequence	binding signal (log2 normalized intensity)
ACAAGGAATTGGAATTGGGAGGACAGATAA	-1.26
CAAACAAAGGCACTTCTCTCTCCAAGGCAC	-1.32
GGAGTGCTCCCGCCTGACCTGGCCCCTGAG	0.962
TTTGCTCCAGTTCCCAATAATTTCCTTATC	-1.15
TATTGCCCTCAGGGTTTAGGCCTGGGACCT	0.379
TAGTCCTATCACTGTCTAGCTGTGTAACCC	1.87
TACAGACTTTCAACAAGGTGGAGACCTCTG	-0.0966
TTCCAATAAACTTCATTTACCAAAAAACAG	-1.19
TCAGCACACTCTGGTACCATGGATGCACTC	0.457
ACAAGGAGTCTCCACTATGACCTGTGCTTT	2.18
CATCCAACTCCTTGAGAAGTACAACTTCAG	-1.36
AAAGGAGCTGGGCCTGTGCTGGGGACAAAA	-1.3
CCGTCGGCACACACGCATGGCCGGCAGCAG	-1.31
CAGCATGTTATCAGTTAATTGCATTCTTTG	0.554
CCAAACAGAACAAAGTCCAGTAAGGACAGT	3.01
TGAGTAATGTGAAGACTTCGCTGGAATGTC	0.589
GTCACAGCAAAAGTAGCCTGGTCAGGAACA	-1.33
GCTCTGTAAGGAGGATCAAGTGTGCACACT	3.46
ACTAGCTCCATGTGAGTCACAAACAGTACT	-0.852
GGCTGCTTCACACAAACATCACCTACCTGA	-1.41
TACCAAGGAGTGGACTGTTCAAGACCAAAG	-1.3
CCTTTGTGTTTATGGCAAATTGATATCCTG	1.48
TTTCACAGTCGATCTTTGACCGCTGCCTCC	5.11
CATTTGGAGAGAGTTTGGCCCCAGTTCCCA	1.91
TGCTGCTCTAGATGAGGGGGAAAGGGGTTG	-1.42

Sequence	binding signal (log2 normalized intensity)
TTCTTAACAAGCTGAGCACCAGAAACCTGC	-1.36
CTGCATGAAAGTTCTCTGGGCTTTTTGATC	1.79
GATCTGGGTTTGACCGTTCTCTCCGGGTAA	1.08
TTAGGAAACCTGGTAGCGTGTAGTAAAGCT	-1.3
AACCAAAGTAGAGGAATGCTGGTAAACACT	-1.27
ACTGACCTTGTTGCCCACCCCCCAAGTAGA	6
TCATGGAGGTGTGGGGAGTTCCTTCAGACC	-1.18
TGAAGGGCAGGGTTGGCTGTGGCAATTCCT	-1.12
CAGCATTCCATTCATTTTAGACATAACAGT	1.33
TCCAAAAAGAATCAGTTACAAGTTAATTTC	-1.44
CACACAGACTTGGGTTCAAAGAGCACATTC	4.13
CTCCCAAATCTTCTTTAAGCTATGTGGTGG	0.933
CCTGATGGGATGAGAGAGCCCCTGTGATAC	2.15
CTGAGCATACAGAACCCATGCTCTTTGGCC	3.91
AGCTGGTTTGAAGAATGTGGTCTGGTCATG	1.69
TTGCCAGTTCCCATTTGCGCTGGTTTTATG	1.65
TTTAAGGTCACATGCCTAGGTAAGCCCACT	-1.08
CTTGCAATGAGGCGACATCAAAGCATTTGG	-1.25
AGCTATTGCGAGGTTCCATGGTGTAATGGT	1.81
GGCCACCTTTGGCCGAAACTCAGTGATTGG	1.42
TTGGTAATCCTGCTCCTTCTGAATCTGTTC	1.11
AGTAGCTAGGAGACAACTTAGAATTTCATT	-1.27
AGGACAGACTTTGGACCTGGCCCTCTGGGT	5.3
AACTCCCCCTGCCCCCAGGTAGAGAGCAAT	4.35
AGGGTCACAAGGATCCCATTCATGTGGGTC	0.887

Sequence	binding signal (log2 normalized intensity)
ACACTTCCCAAGCATGTTTGGTGACCCGTG	3.57
AGTGTGAGTGTCAGAGGCTAAACCTAGCCC	-1.45
CTGCCCTTTGAAGCATGTGATCTACTCCCT	1.14
AGGTCTCGAGGCCTCTTTATCTCCTCCCCT	3.34
TGTTTTTATTTCCCCTTTCTGTTGGAAGCT	1.42
ACAAAGCTCTGCATCCTTCCCTAAGCAGCT	-1.28
GCAGCTCTGCGTCTTACTAAATGCAGCCTT	-1.3
CCAAGACTCGCGATAACCCTCTGGGGCCGG	-1.3
ACACGCATGGCCGGCAGCAGCCTTGCCTTT	-1.31
GGACTTGAGGTCTTATCTTTAGGCCAAACA	0.513
ACAAAGAAAGCCAAAGTTCACCCTTTCGCC	2.44
ATGGGACATTGCATTCCACCCTGGCAGAGG	-1.29
ACTGATTCTCAGGCATCTCTGGGGGTCAGA	3.42
GTACACAGGAATATCAACAGGAGCAAATAT	-1.3
ATATTCAGACGCATGACCTCAACTCTCAGT	0.396
TCATTTTGATCTTTGTGTACAAAGCCATCA	1.49
AGGTGTAACCTGCTCTCTCATGCCCTTTGC	4.81
GTTCAGAGGGCATGTTGAGTGGAATATGAG	0.989
GCCTTGCTGAGGAATTTGGACTTCAGCCCA	7.03
GCATCAACTCTATCATACTCAGCTAATCTA	-1.29
ACAGCTGACAAGCAGAACCCAGGGTCACAA	1.25
CTAGAAAGAATGAGAAGGGCTAATATTTGC	-1.17
GAACTCTTCATGGACTCCTCTTATCTTCAG	0.888
ACTGCCATTGATAATTCAGTTTCATTGCAC	-0.131
TCCCTCCCCCATTAGAGGCACACTCTATTA	3.48

Sequence	binding signal (log2 normalized intensity)
CGAGAGAGACCTGTTCTGTTCCCTGGACTC	3.25
TTTGTTCACTTGTTTATCTGCTGCCCTTCC	3.05
GCTTGACCCATTATGGCCACTGTGTGTGTG	2.11
TCAGGTTCCCCAGTGAGGATGTGTGCTCGA	1.14
AGACAGAAAACAAACATTAGCTGCAGATTC	-1.33
TAGGGCAGGGGGGAGATGAAATCTGGAGCT	-1.42
TGACACACACCTCCAGCCACCCTGAAGGCT	-1.32
GTGGGATCCAACCAGAGGGAAGAGATCATG	-1.13
CAAACATTTATTTTGTGTGCTAGATACTGG	0.924
CCCCTCTGACCTCTCCTCCTACCTTCTCCC	2.67
TCTTTGCCCTCTTGGTATCAGCTTTGAGAC	1.91
CCTTTCCCCGCCCCGCGTCCGTGCACCCTT	4.51
GTCAGGAACAAAGGTCACAGCACTGTTTAT	4.74
TAATTAACTCCCCCTGCCCCCAGGTAGAGA	5.82
CCCCCAGCCTCTCACAGTAGCCCAGGTCCT	2.25
AGGAGAAGGGCCCATGGGCTTCAGGGTAAA	-1.43
AAAAAACCCTAGAGATGTACACAGTTCAAA	-0.843
AATTGTGAAACTCAGAATCAGGGGATTCTG	-1.38
CTTCACCTCCCCTAGACTTACTATTATGCC	1.86
CCTAGCCCCACCAAACTGACAGGTTAGACT	2.33
CAAGGTTCCCAGCTAAATAAATAACTCTAA	-1.34
CTCCAAACATCTTTGGTATGGACTGATATT	1.85
AGGAGATATGCACTTGCCCTTTGGTAATCC	3.81
GACTCTGTCCTGGGCACTGTCCTAGGTGCT	-1.17
CTCCCCCACGACAGAATTGACTCTTCGTTT	2.63

Sequence	binding signal (log2 normalized intensity)
TGCCACAGGTATTTCTGTTGTTGATTTAAC	1.39
TATTCTTTAACCAGAGTCTACAGGTCAGAC	2.21
TATCTCAACTGATTTACCTCTGACCACTCT	1.15
TCTTGTAGGTTTTTTTTTTTTTTAACGGTC	3.09
CTCCAGGAGCAATCATCGCACCTAAGGGCA	-1.43
GTCCCAGGGCAAAGGTCACCAGCTAAGCTG	6.21
ACCTCTGGTCATTCAATGTTTGGGAGCCTT	1.2
TGTCGGTATAAGTTCTACATTCCCAAGGTT	0.743
CTTCCTTTATTCACTTCTCAAAGGACAGAT	1.65
AAGGCATGGGACCTTTGCCCTTCTTGTTAA	5.47
ACACTTTCTGACCTTTAAGCACCCAGAGCC	2.86
TAAAGGTCAAAACCACCTATTCTGAAGATT	0.57
GTTACGAGTGGGAGTTAGGGAAAAGATAAG	-1.33
GAGGAGAGTACTGTCTCTTATCAGCCATCT	-1.22
TTCCAGGCTTGTACCTTGACCTTCTCTGTT	6.19
AGATGTGAACACTGAGGCTCAATGAGGTCA	2.2
CCCGGGCACAGGGTTGAGTGGTGACTGAAG	-1.22
CAAGAGAGGTCACAACAGAAAGCAAGAGCA	-1.27
ACGCCCTGCACCCTACGTAAATGCACGGAA	-1.23
AAATTATTACTCCCACCGTGTGTGCACTTT	3.9

From article PMC10726135
